# In the BET-seq Pho4 binding data (Le et al. 2018):
# The other results are listed elsewhere or left out. These are noisy estimates, calculated here from bound and input reads.
# Target: T1, Pho4 (S. cerevisiae) (UniProt P07270)
# T1 sequence: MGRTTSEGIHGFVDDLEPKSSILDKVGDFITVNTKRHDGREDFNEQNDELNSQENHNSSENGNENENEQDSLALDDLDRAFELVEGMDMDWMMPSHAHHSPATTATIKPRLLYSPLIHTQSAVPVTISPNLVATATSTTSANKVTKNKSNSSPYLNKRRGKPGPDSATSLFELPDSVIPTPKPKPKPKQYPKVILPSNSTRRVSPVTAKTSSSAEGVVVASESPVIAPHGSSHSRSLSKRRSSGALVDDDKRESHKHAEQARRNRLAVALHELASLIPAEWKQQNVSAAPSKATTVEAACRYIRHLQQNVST
# Assay: relative binding free energy (BET-seq); higher = weaker binding
# Conditions: reference: library average
row,Sequence,relative binding free energy
1,AGGGGCACGTGGGCAC,-0.2 kcal/mol
2,TTCGGCACGTGTAAAG,0.22 kcal/mol
3,GGCGGCACGTGCTGTG,-0.08 kcal/mol
4,CTTAACACGTGGGATT,-0.05 kcal/mol
5,CATTTCACGTGCGGGG,0.32 kcal/mol
6,AAGAGCACGTGGGTAG,-0.1 kcal/mol
7,GAGTGCACGTGGTCTA,-0.06 kcal/mol
8,AGTATCACGTGGCAGG,-0.08 kcal/mol
9,GCTTTCACGTGTGGTT,0.31 kcal/mol
10,TGGGACACGTGGATTT,0.21 kcal/mol
11,AGGGTCACGTGCATGT,0.12 kcal/mol
12,CGTTTCACGTGGAGTT,0.37 kcal/mol
13,AGGGTCACGTGAAGTC,0.32 kcal/mol
14,TTGCCCACGTGTATGG,-0.02 kcal/mol
15,TATAGCACGTGAGTCG,0.23 kcal/mol
16,GTGGTCACGTGTAATG,0.14 kcal/mol
17,CGGAGCACGTGTATGT,-0.16 kcal/mol
18,TACATCACGTGATTGG,0.18 kcal/mol
19,GAGTTCACGTGTTTCG,0.38 kcal/mol
20,AGTGACACGTGTAGGC,0 kcal/mol
21,TTTGGCACGTGCTTAT,-0.02 kcal/mol
22,GTTGGCACGTGAGTTG,0.12 kcal/mol
23,GTTATCACGTGGCGTA,0.22 kcal/mol
24,AGGTTCACGTGAGGAA,0.3 kcal/mol
25,GTGGGCACGTGAAGTG,0.29 kcal/mol
26,GTTGGCACGTGAAAGT,0.26 kcal/mol

row,Sequence,relative binding free energy
1,CGGTACACGTGGTGTA,0.08 kcal/mol
2,TGGGACACGTGGATTA,0.11 kcal/mol
3,GCATTCACGTGTGTAG,0.31 kcal/mol
4,TTCGGCACGTGGGATA,-0.18 kcal/mol
5,GAAGGCACGTGGGTAT,-0.06 kcal/mol
6,CGTGACACGTGTGCGT,-0.17 kcal/mol
7,TTGTTCACGTGATTGG,0.44 kcal/mol
8,TTCTTCACGTGGTATT,0.22 kcal/mol
9,AATTGCACGTGGTGCG,0.03 kcal/mol
10,GTTTTCACGTGCGTGG,0.2 kcal/mol
11,TTTTCCACGTGTGGAG,0.05 kcal/mol
12,TGGTTCACGTGACGAA,0.47 kcal/mol
13,AGTTGCACGTGTTATT,0.04 kcal/mol
14,GACGGCACGTGAAGTG,0.33 kcal/mol
15,TGGAGCACGTGTTAGA,-0.07 kcal/mol
16,GCTTTCACGTGGCGGT,0.33 kcal/mol
17,TTGGGCACGTGGTGAC,-0.06 kcal/mol
18,ATTAGCACGTGGTGTT,-0.19 kcal/mol
19,TTGTGCACGTGGTTAG,-0.04 kcal/mol
20,GCCTGCACGTGGTGAG,0.06 kcal/mol
21,TGTTCCACGTGCGGGG,-0.03 kcal/mol
22,GTTCGCACGTGGTTCG,-0.08 kcal/mol
23,ATTGGCACGTGTTCGT,-0.1 kcal/mol
24,TTGGACACGTGGAAGG,0.11 kcal/mol
25,TTCGTCACGTGTGGCA,0.09 kcal/mol
26,TTAAGCACGTGTTCTG,-0.02 kcal/mol

row,Sequence,relative binding free energy
1,TGATGCACGTGAGGAA,0.19 kcal/mol
2,GTCGTCACGTGTAGTA,0.11 kcal/mol
3,AGTCTCACGTGGGTTT,0.21 kcal/mol
4,AGGCTCACGTGGGCTG,0.03 kcal/mol
5,AGTTCCACGTGTGTGC,0.16 kcal/mol
6,TTGAACACGTGGGGCA,-0.21 kcal/mol
7,GGTGTCACGTGTAAGT,0.2 kcal/mol
8,TCGGTCACGTGCGGAG,0.12 kcal/mol
9,AGTAGCACGTGGAGGG,-0.15 kcal/mol
10,TTGAACACGTGGACTG,0.14 kcal/mol
11,GGTAGCACGTGGGTGT,-0.12 kcal/mol
12,GAGTTCACGTGGAGGC,0.21 kcal/mol
13,AGAGCCACGTGGTGTA,-0.19 kcal/mol
14,GGAGTCACGTGCTGTA,0.08 kcal/mol
15,GATTTCACGTGTAATA,0.37 kcal/mol
16,AGGACCACGTGGGGTG,-0.35 kcal/mol
17,TTAGTCACGTGGCGCG,0.13 kcal/mol
18,GTCGGCACGTGTGGAG,-0.03 kcal/mol
19,TGAGGCACGTGATTTA,0.01 kcal/mol
20,GTGGACACGTGGCGTC,-0.03 kcal/mol
21,AAGGTCACGTGGTGAA,0.05 kcal/mol
22,GTTAGCACGTGTGGCC,0.08 kcal/mol
23,AGTCACACGTGGTGGC,0.07 kcal/mol
24,GAAATCACGTGGTGAG,0.32 kcal/mol
25,GGGTACACGTGCGTGT,0 kcal/mol
26,TGTCTCACGTGTTAAG,0.27 kcal/mol

row,Sequence,relative binding free energy
1,GGATGCACGTGATTTG,0.1 kcal/mol
2,GGGAGCACGTGGTCCG,-0.08 kcal/mol
3,TGCTTCACGTGTTATA,0.17 kcal/mol
4,CGGCTCACGTGGTTTT,0.24 kcal/mol
5,GCTCGCACGTGTGGGG,0 kcal/mol
6,GGTCACACGTGTTAAT,0.31 kcal/mol
7,GAAATCACGTGGTGGC,0.31 kcal/mol
8,CTTATCACGTGAAGGG,0.32 kcal/mol
9,TCCGGCACGTGTGGGA,-0.02 kcal/mol
10,TGGGGCACGTGTAAGG,0.09 kcal/mol
11,CGTGGCACGTGGGTGA,-0.21 kcal/mol
12,TTTACCACGTGGGATT,-0.2 kcal/mol
13,GAGAGCACGTGTGGTC,-0.07 kcal/mol
14,ATAGTCACGTGCTGTA,-0.03 kcal/mol
15,TGTACCACGTGGTCAG,0.08 kcal/mol
16,AACGTCACGTGGGTGT,0 kcal/mol
17,ATTGTCACGTGTATAG,0.02 kcal/mol
18,GATGTCACGTGAGGGG,0.3 kcal/mol
19,TTGTTCACGTGAGGGT,0.43 kcal/mol
20,TTTAACACGTGGTAAT,-0.18 kcal/mol
21,TTTAGCACGTGCTGTG,-0.14 kcal/mol
22,GTTGACACGTGGGGAA,-0.01 kcal/mol
23,TATGACACGTGAATTT,0.21 kcal/mol
24,GCTAACACGTGGTGTT,0.09 kcal/mol
25,TCGGGCACGTGCGGAT,-0.07 kcal/mol
26,TAAAACACGTGTGATT,0.19 kcal/mol

row,Sequence,relative binding free energy
1,TTCTGCACGTGTAGGC,0 kcal/mol
2,TTCGTCACGTGGTAGT,0.04 kcal/mol
3,CGGAGCACGTGGTCGG,-0.21 kcal/mol
4,GATTACACGTGGCGGT,-0.02 kcal/mol
5,ATATGCACGTGATGGA,0.18 kcal/mol
6,TTAAGCACGTGGAGTC,-0.08 kcal/mol
7,GAGTGCACGTGACGTG,0.14 kcal/mol
8,GAGATCACGTGGGGAT,0.21 kcal/mol
9,TTTAGCACGTGTTAGG,-0.12 kcal/mol
10,GTGTCCACGTGGGAAG,0.03 kcal/mol
11,TGTTGCACGTGGGGAT,-0.17 kcal/mol
12,TGGTCCACGTGATGTT,0.19 kcal/mol
13,ATAAGCACGTGTGAAT,-0.06 kcal/mol
14,GGGCTCACGTGTGGGC,0.27 kcal/mol
15,GTGTCCACGTGATAGG,0.36 kcal/mol
16,GGGTGCACGTGACGGT,0.16 kcal/mol
17,TGTTACACGTGACGTG,0.16 kcal/mol
18,TTATACACGTGTGTCT,0.09 kcal/mol
19,TTTATCACGTGGATGA,0.22 kcal/mol
20,ATGGACACGTGTGAAA,0.14 kcal/mol
21,GTCTACACGTGTTTGA,0.19 kcal/mol
22,TGTTACACGTGGTGAT,0.15 kcal/mol
23,TGGTTCACGTGGTTAA,0.41 kcal/mol
24,TGGATCACGTGGGTAT,0.11 kcal/mol
25,TTAGACACGTGGTAAT,0.07 kcal/mol
26,TTAATCACGTGCTAGG,0.08 kcal/mol

row,Sequence,relative binding free energy
1,AAGTTCACGTGCGGGC,0.3 kcal/mol
2,TTGAGCACGTGAGGCA,0.14 kcal/mol
3,TTTTTCACGTGGAGTG,0.32 kcal/mol
4,AGTTGCACGTGGAGCT,0 kcal/mol
5,GAGATCACGTGGTGAG,0.22 kcal/mol
6,TTTGCCACGTGGTGTC,-0.18 kcal/mol
7,GGGTTCACGTGGCTGT,0.24 kcal/mol
8,CGGTACACGTGGTTGC,0.02 kcal/mol
9,TCGCGCACGTGGTTGT,-0.1 kcal/mol
10,GGATTCACGTGGAGTG,0.23 kcal/mol
11,TGTTGCACGTGAGTCT,0.14 kcal/mol
12,TAGGGCACGTGAGAGC,0.04 kcal/mol
13,GGTTACACGTGCGGGC,0.11 kcal/mol
14,GGGTGCACGTGCGCGG,-0.12 kcal/mol
15,GTGGGCACGTGAAGAT,0.18 kcal/mol
16,AGGGTCACGTGTCGTA,0.25 kcal/mol
17,TATTTCACGTGTGTTG,0.28 kcal/mol
18,AGGGACACGTGTGAGT,0.14 kcal/mol
19,AAGTTCACGTGATCAT,0.47 kcal/mol
20,TCATTCACGTGTCGTG,0.31 kcal/mol
21,GTTTGCACGTGCCGGG,-0.05 kcal/mol
22,GATGTCACGTGTTAGA,0.11 kcal/mol
23,CGTATCACGTGGTAGG,0.02 kcal/mol
24,TCATGCACGTGGGGCT,-0.22 kcal/mol
25,CTTTTCACGTGAGTTA,0.4 kcal/mol
26,GGCGGCACGTGTTTGA,0.07 kcal/mol

row,Sequence,relative binding free energy
1,AGGGTCACGTGTGTTC,0.06 kcal/mol
2,AGTTGCACGTGTGTTT,0.06 kcal/mol
3,TATGTCACGTGTGGGT,0.12 kcal/mol
4,GGGGTCACGTGAGGTC,0.39 kcal/mol
5,ATCGTCACGTGGTGCT,-0.06 kcal/mol
6,ATCCGCACGTGAGGTT,0.26 kcal/mol
7,GGTCACACGTGGGGGG,-0.06 kcal/mol
8,ATTACCACGTGGGGGT,-0.3 kcal/mol
9,AGCTGCACGTGTTGTG,-0.01 kcal/mol
10,TGTGGCACGTGAATTA,0.17 kcal/mol
11,GTCGTCACGTGTCGTG,0.07 kcal/mol
12,CATTTCACGTGGTTGT,0.33 kcal/mol
13,TAATCCACGTGTTTGT,-0.06 kcal/mol
14,ATAGGCACGTGTTGAT,-0.23 kcal/mol
15,TATTGCACGTGCGTCA,-0.06 kcal/mol
16,AAAGGCACGTGGTCTT,-0.18 kcal/mol
17,CACTTCACGTGTGTGG,0.15 kcal/mol
18,CGGGCCACGTGGGAGT,-0.16 kcal/mol
19,TGGGACACGTGGGGCA,-0.06 kcal/mol
20,TGGCACACGTGTGATT,0.16 kcal/mol
21,GTGAGCACGTGTCCGG,-0.05 kcal/mol
22,GTTGTCACGTGTGCAA,0.11 kcal/mol
23,TGGTTCACGTGACGGC,0.24 kcal/mol
24,GCTTGCACGTGTAAGG,0.12 kcal/mol
25,TATAACACGTGGGTTG,-0.14 kcal/mol
26,GGGGCCACGTGGGTGG,-0.13 kcal/mol

row,Sequence,relative binding free energy
1,GTTAGCACGTGATGTC,0.31 kcal/mol
2,TTGAACACGTGTCGTT,0.04 kcal/mol
3,GGTGGCACGTGTGCGA,-0.13 kcal/mol
4,CGTATCACGTGAGGTG,0.29 kcal/mol
5,GTTATCACGTGTGGAG,0.06 kcal/mol
6,ATATACACGTGTTATA,0 kcal/mol
7,GCCGTCACGTGGGGGT,0.07 kcal/mol
8,TTATCCACGTGTGGGT,-0.12 kcal/mol
9,GAAGCCACGTGGTGGG,-0.08 kcal/mol
10,GTGATCACGTGAATTG,0.29 kcal/mol
11,GTGGTCACGTGGGGTC,0.05 kcal/mol
12,AGGGCCACGTGTTGTT,-0.08 kcal/mol
13,CTATACACGTGAGGTG,0.32 kcal/mol
14,GAATACACGTGGTGGG,0.1 kcal/mol
15,CAAAGCACGTGTTGTG,-0.11 kcal/mol
16,TGTACCACGTGTATAG,-0.08 kcal/mol
17,GGAGTCACGTGGAAGT,0.28 kcal/mol
18,AAGCTCACGTGAGGTG,0.42 kcal/mol
19,ACAGTCACGTGTTGTT,0.08 kcal/mol
20,GGAATCACGTGGGTTC,0.06 kcal/mol
21,AGCAGCACGTGTGCGT,0.07 kcal/mol
22,TAGAGCACGTGTATGT,-0.25 kcal/mol
23,ATGGGCACGTGGAGTG,-0.09 kcal/mol
24,AGGTGCACGTGTGGGG,0.06 kcal/mol
25,ACGTTCACGTGCGGTT,0.2 kcal/mol
26,AGGTACACGTGCTTGG,0 kcal/mol

row,Sequence,relative binding free energy
1,ATTTCCACGTGGGGGT,-0.13 kcal/mol
2,GTGCTCACGTGCGTGT,0.04 kcal/mol
3,AGGGACACGTGAGTAT,0.35 kcal/mol
4,AATTGCACGTGGTTTA,-0.08 kcal/mol
5,TTTCTCACGTGTTTGA,0.31 kcal/mol
6,AGAATCACGTGGTTAG,0.17 kcal/mol
7,TTAAGCACGTGAGTTA,-0.02 kcal/mol
8,CGGTGCACGTGATGGC,0.09 kcal/mol
9,TGATGCACGTGAAAGG,0.22 kcal/mol
10,GGGGGCACGTGAGCCT,0.2 kcal/mol
11,CAAGGCACGTGCGGGT,-0.15 kcal/mol
12,TGATCCACGTGTATGG,0 kcal/mol
13,AAGTACACGTGATATT,0.21 kcal/mol
14,CGGGGCACGTGCCGGT,-0.27 kcal/mol
15,GTCGGCACGTGGTAAG,-0.09 kcal/mol
16,ATCTTCACGTGGAATT,0.31 kcal/mol
17,GGTTACACGTGCTAGT,0.11 kcal/mol
18,GTCAGCACGTGGCTGT,-0.05 kcal/mol
19,ATTTACACGTGGTCAT,-0.07 kcal/mol
20,TTGTTCACGTGTAACG,0.33 kcal/mol
21,TGGCGCACGTGGTCAT,-0.19 kcal/mol
22,ATGGGCACGTGTACAT,-0.02 kcal/mol
